The campaign covered roughly 420,000 compounds. About 64,000 (15%) were called active. The shares of active, inactive and inconclusive entries below differ from those in the screen. The call rests on the fitted dose curve; in most records, active means well fitted inhibition curve with a large enough effect; inconclusive means small, poorly fitted or top-dose-only effect; inactive means flat fitted curve, though single readings scatter. No potency is given beside an inconclusive call; the fits are too rough.
assay: qHTS for Inhibitors of human tyrosyl-DNA phosphodiesterase 1 (TDP1): qHTS in cells in absence of CPT; details: DT40 Tdp1-/- hTDP1 cells, no CPT, ATP luminescence, 48 h; activity change, negative = growth inhibition: at 46.2 µM (top of the series) unless noted; further: nearly all actives have a fitted effect of over 55% in size
In short: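 Compound effects on proliferation are scored in DT40 Tdp1-/-;hTDP1 cells in the absence of CPT. ATP levels (CellTiter-Glo luminescence) are recorded after a ≥48 hr, 37 °C incubation.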
On the % scale 0 is the no-effect control and ±100 the full control effect; potency means the concentration at half of the fitted maximal effect; tags describe the fitted curve by direction and shape.

Row | Structure (SMILES) | Potency | activity change, negative = growth inhibition
1 | Cc1cccc(NC(=O)c2oc3ccc(S(=O)(=O)N(C)C4CCCCC4)cc3c2C)c1C | active: 8.2 µM | 
2 | Fc1cccc(NC(=S)NCC(c2cccnc2)N2CCOCC2)c1 (centres undefined) | inconclusive [inhibitor, partial curve] | 
3 | O=C(NC1=NCCS1)C1CCN(S(=O)(=O)c2ccccc2C(F)(F)F)CC1 |  | inactive: -10.7%
4 | Cc1[nH]nc2nc(SCC(=O)NC3CCCCC3)n(-c3ccc(Br)cc3)c(=N)c12 | active: 6.51 µM | 
5 | CCOC(=O)CC(C)(C)/C(C)=N/Nc1ccc([N+](=O)[O-])cc1[N+](=O)[O-] | active: 14.6 µM | 
6 | Cc1ccc(NC(=O)Cn2c(=O)cnc3ccccc32)cc1S(=O)(=O)N1CCCCC1 | inconclusive [inhibitor, single point] | 
7 | CC1(C)CC(=O)C2=C(C1)c1c(ccc3ccccc13)NC2c1cc([N+](=O)[O-])cc([N+](=O)[O-])c1O (centres undefined) | inconclusive [inhibitor, single point] | 
8 | Cc1cccc(OCCOCCn2c(-c3ccc(Cl)cc3)nc3ccccc3c2=O)c1C | inconclusive [inhibitor, single point] | 
9 | Cc1c(NC(=O)C(F)(F)F)ccc2nc3c(=O)n(C)c(=O)n(C)c3nc12 | active: 16.4 µM | 
10 | CCOCCCNC(=O)Cn1cc2c(n1)-c1c(oc(C(=O)N3CCCC3)c1C)CC2 | inconclusive [inhibitor, single point] | 
11 | COc1c(Cl)cc(Cl)cc1/C=C(\C#N)c1nc(-c2ccc(Cl)cc2)cs1 |  | inconclusive: -4.76% [inhibitor]
12 | CCCCOC(=O)c1ccc(NC(=O)c2c(N)n(C)c(=O)[nH]c2=O)cc1 | inconclusive [inhibitor, single point] | 
13 | CC(C)(C)NCc1ccc(OCc2cccs2)cc1 |  | inactive: -14.3%
14 | CC(C(=O)OCC(=O)c1ccc([N+](=O)[O-])cc1)N1C(=O)C2C3C=CC(C3)C2C1=O (centres undefined) | inconclusive [inhibitor, partial curve] | 
15 | O=S(=O)(Cc1cc(Sc2ccc(Cl)cc2)nc(-c2ccccc2)n1)c1ccccc1 | inconclusive [inhibitor, single point] | 
16 | C[C@@H](C(=O)NCc1ccccc1)[C@@H]1C[C@@]1(C)[C@@H](NC(=O)OCc1ccccc1)c1ccccc1 | inconclusive [inhibitor, single point] | 
17 | Cc1ccc(C(C)C)c(OCCCn2c(=O)oc3ccc(C)cc32)c1 | active: 16.4 µM | 
18 | CCOc1ccc2[nH]c(C)c(CN(C)C)c(=O)c2c1 |  | inactive: -17.3%
19 | CCOC(=O)C1CCN(C(=O)/C(=C/c2ccccc2)NC(=O)c2ccccc2)CC1 |  | inconclusive: -32.7% [inhibitor]
20 | COc1cccc(COc2cc3ccccc3nc2C)c1 | active: 9.2 µM | 
21 | Cc1cccc(NC(=O)CN2C(=O)COc3ccc(Cl)cc32)c1 | inconclusive [inhibitor, partial curve] | 
22 | CC(C)c1ccc(NC(=O)c2cnn3c(C(F)F)cc(-c4ccccc4)nc23)cc1 | inconclusive [inhibitor, partial curve] | 
23 | Cc1ccc(S(=O)(=O)n2ccc3c(OCCOCCSCC(NC(=O)OC(C)(C)C)C(=O)O)cccc32)cc1 (centres undefined) |  | inconclusive: -31.3% [inhibitor]

Row | Structure (SMILES) | Potency | activity change, negative = growth inhibition
24 | COC(=O)Cn1ccc2cc(S(=O)(=O)N3CCCCC3)ccc21 | inconclusive [inhibitor, single point] | 
25 | CCCC(C)c1nc(C(N)=O)c2[nH]c(=O)n(-c3ccc(OC)cc3OC)c2n1 (centres undefined) | inconclusive [inhibitor, single point] | 
26 | CCCCC(=O)N(c1ccc(C(=O)O)cc1)c1nc(-c2ccc(Cl)cc2)c(CC)s1 | inconclusive [inhibitor, partial curve] | 
27 | Cc1ccccc1NC(=O)c1ccc(F)c(S(=O)(=O)N2CCc3ccccc3C2)c1 | inconclusive [inhibitor, single point] | 
28 | CCOC(=O)C1CCCN(CC(=O)NC2=Nc3ccccc3N=C(C)C2c2ccccc2)C1 (centres undefined) | inconclusive [inhibitor, single point] | 
29 | N#CCCN(C(=O)CSc1ccc2c(c1)OCCO2)c1ccccc1 |  | inconclusive: -31.5% [inhibitor]
30 | O=C(O)COc1ccccc1C1Nc2ccccc2-c2nnc(SCc3ccc(Cl)cc3)nc2O1 (centres undefined) | inconclusive [inhibitor, single point] | 
31 | Cc1ccc2nsnc2c1NC(=O)c1ccc([N+](=O)[O-])cc1 | inconclusive [inhibitor, partial curve, poor fit] | 
32 | CCOC(=O)c1c(C)c(C)n(Cc2ccc(OC)c(OC)c2)c1C | active: 18.4 µM | 
33 | COC(=O)[C@@]1(Cc2ccc(OC)cc2)[C@H]2c3cc(C(=O)N4CCCC4)n(CCSCCO)c3C[C@H]2CN1C(=O)c1ccccc1 | inconclusive [inhibitor, single point] | 
34 | Cn1c(=O)c2c(n(Cc3ccccc3)c1=O)NC(=O)C2CC(=O)N1CCc2ccccc2C1 (centres undefined) |  | inconclusive: -30.6% [inhibitor]
35 | Cc1cc(C(=O)COC(=O)Cc2ccc(Cl)cc2)c(C)n1C | inconclusive [inhibitor, single point] | 
36 | COCCCNC(=S)N(CCN(C)C)Cc1cc2cc3c(cc2[nH]c1=O)OCCO3 | inconclusive [inhibitor, partial curve, poor fit] | 
37 | COC(=O)c1nn(-c2ccc(OC)cc2)c(=O)c2c(N)sc(C)c12 | active: 16.4 µM | 
38 | COc1ccccc1N1CCN(C(=O)c2cc3n(n2)C(C(F)(F)F)CC(c2ccco2)N3)CC1 (centres undefined) | active: 18.4 µM | 
39 | CC1CC(C)CN(C(=O)Cn2c(=O)n(CCCCC(=O)NC3CCCC3)c(=O)c3ccccc32)C1 (centres undefined) | inconclusive [inhibitor, partial curve, poor fit] | 
40 | O=C(COC(=O)COc1ccc(Br)cc1)NCCC1=CCCCC1 |  | inactive: -17.9%
41 | COc1cccc(CNC(=O)CCC(=O)N2CCSc3ccccc32)c1OC | inconclusive [inhibitor, single point] | 
42 | O=c1nc(-c2ccccc2)n(-c2ccc(Cl)cc2)[nH]1 |  | inconclusive: -31.1% [inhibitor]
43 | Cc1cccc(CS(=O)(=O)Cc2ccc(C(=O)NCCN3CCCCC3C)o2)c1 (centres undefined) |  | inactive: -16.4%
44 | Clc1cccc(Cl)c1-c1nnc2ccc(N3CCOCC3)nn12 | inconclusive [inhibitor, partial curve] | 
45 | COc1ccc(CNC(=O)CS(=O)CC(=O)O)cc1OC (centres undefined) |  | inactive: -13.3%
46 | Cn1cc(S(=O)(=O)c2ccccc2)n(C)c1=O |  | inactive: -2.83%

Row | Structure (SMILES) | Potency | activity change, negative = growth inhibition
47 | O=C(NCCc1c[nH]c2ccccc12)C(=O)NCC1OCCCN1S(=O)(=O)c1cc(F)ccc1F (centres undefined) | inconclusive [inhibitor, single point] | 
48 | O=C(NCc1ccccn1)C1CCCN(S(=O)(=O)c2cccc3nsnc23)C1 (centres undefined) | inconclusive [inhibitor, single point] | 
49 | Cc1ccc(NC(=O)Cn2nc(-c3ccccc3)nc2-c2ccccc2)c(C)c1 | inconclusive [inhibitor, single point] | 
50 | C#CCNC(=O)C1=C[C@@H](C2CC2)C[C@@H](OCc2ccc(CO)cc2)O1 |  | inactive: -20.7%
51 | Fc1ccccc1-c1csc(=Nc2cccnc2)n1CCCn1ccnc1 | active: 16.4 µM | 
52 | COc1cccc(NC(=O)Cn2c(=O)n(CCCCC(=O)NCc3ccc4c(c3)OCO4)c(=O)c3ccccc32)c1 | inconclusive [inhibitor, single point] | 
53 | COc1ccc(NC(=O)c2ccco2)cc1NC(=O)c1cccc(OC(C)C)c1 | active: 11.6 µM | 
54 | O=C(Cn1nnc(-c2ccccc2)n1)Nc1ccc2c(c1)OCO2 |  | inactive: -0.683%
55 | CCC(Sc1ncnc2sc3c(c12)CCCC3)C(=O)OCC(C)C (centres undefined) | inconclusive [inhibitor, single point] | 
56 | CC(Oc1ccc2c(=O)c(-c3ccc(Cl)cc3)c(C(F)(F)F)oc2c1)C(=O)O (centres undefined) |  | inactive: 5.7%
57 | CCOc1ccccc1C(=O)Nc1cc(-c2nc3cccnc3s2)ccc1C | active: 5.17 µM | 
58 | Cc1ccccc1OCCn1c(S(=O)(=O)O)nc2c(N)ncnc21 |  | inactive: -2.49%
59 | CNc1ccccc1C(C)(C)c1cc(-c2cccc([N+](=O)[O-])c2)no1 |  | inactive: -52.1%
60 | Cc1ccc2nc(NC(=O)CN3CCN(c4ccccn4)CC3)sc2c1 | inconclusive [inhibitor, partial curve] | 
61 | COc1ccc(-n2c(SCc3nc(-c4ccc(Cl)cc4)no3)nnc2-c2ccncc2)cc1 | inconclusive [inhibitor, single point] | 
62 | CCOC(=O)N1CCC(NC(=O)c2cnn(-c3ccc(C)cc3)c2C2CCN(C(=O)OC(C)(C)C)CC2)CC1 | inconclusive [inhibitor, single point] | 
63 | COc1cc(/C=N/NC(=O)c2ccc(C)nc2)cc([N+](=O)[O-])c1O |  | inactive: -12.1%
64 | O=C(CSc1ccccc1)NC1CCCCCC1 |  | inactive: -6.86%
65 | N#C/C(=C\c1ccc(N2CCCCC2)o1)C(=O)Nc1cccc(Br)c1 | active: 7.31 µM | 
66 | CN1CCN(c2c(/C=N/O)c3ccccc3n2C)CC1 |  | inactive: -24.8%
67 | O=C1CCCc2nc(N3CCN(C(c4ccccc4)c4ccccc4)CC3)ncc21 | active: 20.6 µM | 
68 | CCOc1ccccc1NC(=O)CCCCCN1C(=O)[C@@H]2Cc3ccccc3CN2C1=O | inconclusive [inhibitor, single point] | 
69 | O=C(OCC(=O)N1CCN(C(=O)c2ccco2)CC1)c1sc2ccccc2c1Cl |  | inactive: -4.28%
